Laboratory results taken from publication PMC12820563, “FoxP3 forms a head-to-head dimer in vivo and stabilizes its multimerization on adjacent microsatellites”.
The list shows a part of the results.

These sequences were tested against T1, MBP-FoxP1dN (Mus musculus, UniProt P58462 326-579) (assay: PD-seq (MBP pull-down with sequencing); 20 mM Tris-HCl pH 7.5, 100 mM NaCl, 1.5 mM MgCl2, 0.4 uM protein, 0.1 uM dsDNA library, 30 min, room temperature, amylose pull-down; high values mean tight binding). Conditions: protein: recombinant; tags: His6-MBP; chain copies: 2; dsDNA, one strand shown.
T1 sequence: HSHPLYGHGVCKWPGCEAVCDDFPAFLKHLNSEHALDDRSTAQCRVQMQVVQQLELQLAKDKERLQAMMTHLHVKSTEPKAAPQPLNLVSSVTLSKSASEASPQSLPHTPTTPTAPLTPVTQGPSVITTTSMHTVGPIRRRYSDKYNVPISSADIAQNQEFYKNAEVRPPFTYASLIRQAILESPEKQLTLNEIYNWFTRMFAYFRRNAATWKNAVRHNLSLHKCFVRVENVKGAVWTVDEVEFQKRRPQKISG
Method in brief: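 Binding is given as reads-per-million enrichment, pull-down over input, with replicates pooled. The bait was an N-terminus-lacking mouse FoxP3 or FoxP1 fragment with a His6-MBP tag, expressed in E. coli and used at 0.4 µM with 0.1 µM Klenow-filled degenerate double-stranded DNA library for 30 min at room temperature in Tris pH 7.5 buffer with NaCl and MgCl2. Amylose resin pull-down with three washes was followed by proteinase K release, PCR barcoding and Illumina sequencing.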

| Sequence | binding signal |
| --- | --- |
| GATGATTGTTCTCCCAGCTGATGAATTCAGTGGTTCGAGTAAACAAATTTTCCTAATCTTTCTGTTCAAGCGCCATCTAC | 0.872 RPM ratio (pull-down/input) |
| GATGATTGTTCTCCCAGCTGATGAATTTACTCGCTCGAGTAAACAAATTTTCCTAATCTTTCTGTTCAAGCGCCATCTAC | 1.2 RPM ratio (pull-down/input) |
| GATGATTGTTCTCCCAGCTGATGAATTTGGGCGCTCGAGTAAACAAATTTTCCTAATCTTTCTGTTCAAGCGCCATCTAC | 0.867 RPM ratio (pull-down/input) |
| GATGATTGTTCTCCCAGCTGATGAATTTGTTATTTCGAGTAAACAAATTTTCCTAATCTTTCTGTTCAAGCGCCATCTAC | 2.17 RPM ratio (pull-down/input) |
| GATGATTGTTCTCCCAGCTGATGAATTGGCGCCTTCGAGTAAACAAATTTTCCTAATCTTTCTGTTCAAGCGCCATCTAC | 0.93 RPM ratio (pull-down/input) |
| GATGATTGTTCTCCCAGCTGATGAATTTACAGGCTCGAGTAAACAAATTTTCCTAATCTTTCTGTTCAAGCGCCATCTAC | 1.08 RPM ratio (pull-down/input) |
| GATGATTGTTCTCCCAGCTGATGAATTCCTGGGCTCGAGTAAACAAATTTTCCTAATCTTTCTGTTCAAGCGCCATCTAC | 0.754 RPM ratio (pull-down/input) |
| GATGATTGTTCTCCCAGCTGATGAATTAACTTACTCGAGTAAACAAATTTTCCTAATCTTTCTGTTCAAGCGCCATCTAC | 0.906 RPM ratio (pull-down/input) |
| GATGATTGTTCTCCCAGCTGATGAATTATGCCACTCGAGTAAACAAATTTTCCTAATCTTTCTGTTCAAGCGCCATCTAC | 1.06 RPM ratio (pull-down/input) |
| GATGATTGTTCTCCCAGCTGATGAATTTTACGATTCGAGTAAACAAATTTTCCTAATCTTTCTGTTCAAGCGCCATCTAC | 0.971 RPM ratio (pull-down/input) |
| GATGATTGTTCTCCCAGCTGATGAATTCATCCTATCGAGTAAACAAATTTTCCTAATCTTTCTGTTCAAGCGCCATCTAC | 0.86 RPM ratio (pull-down/input) |
| GATGATTGTTCTCCCAGCTGATGAATTGAACTGCTCGAGTAAACAAATTTTCCTAATCTTTCTGTTCAAGCGCCATCTAC | 0.793 RPM ratio (pull-down/input) |
| GATGATTGTTCTCCCAGCTGATGAATTTGGAACATCGAGTAAACAAATTTTCCTAATCTTTCTGTTCAAGCGCCATCTAC | 1.08 RPM ratio (pull-down/input) |
| GATGATTGTTCTCCCAGCTGATGAATTAACCGGATCGAGTAAACAAATTTTCCTAATCTTTCTGTTCAAGCGCCATCTAC | 0.846 RPM ratio (pull-down/input) |
| GATGATTGTTCTCCCAGCTGATGAATTCGTCTACTCGAGTAAACAAATTTTCCTAATCTTTCTGTTCAAGCGCCATCTAC | 0.938 RPM ratio (pull-down/input) |
| GATGATTGTTCTCCCAGCTGATGAATTCTCGGAGTCGAGTAAACAAATTTTCCTAATCTTTCTGTTCAAGCGCCATCTAC | 0.786 RPM ratio (pull-down/input) |
| GATGATTGTTCTCCCAGCTGATGAATTTGCTTCGTCGAGTAAACAAATTTTCCTAATCTTTCTGTTCAAGCGCCATCTAC | 0.979 RPM ratio (pull-down/input) |
| GATGATTGTTCTCCCAGCTGATGAATTAATAATATCGAGTAAACAAATTTTCCTAATCTTTCTGTTCAAGCGCCATCTAC | 1.51 RPM ratio (pull-down/input) |
| GATGATTGTTCTCCCAGCTGATGAATTCCGCTGTTCGAGTAAACAAATTTTCCTAATCTTTCTGTTCAAGCGCCATCTAC | 0.908 RPM ratio (pull-down/input) |
| GATGATTGTTCTCCCAGCTGATGAATTAGGACTTTCGAGTAAACAAATTTTCCTAATCTTTCTGTTCAAGCGCCATCTAC | 0.928 RPM ratio (pull-down/input) |
| GATGATTGTTCTCCCAGCTGATGAATTGATCCACTCGAGTAAACAAATTTTCCTAATCTTTCTGTTCAAGCGCCATCTAC | 1 RPM ratio (pull-down/input) |

| Sequence | binding signal |
| --- | --- |
| GATGATTGTTCTCCCAGCTGATGAATTCCAACTATCGAGTAAACAAATTTTCCTAATCTTTCTGTTCAAGCGCCATCTAC | 0.893 RPM ratio (pull-down/input) |
| GATGATTGTTCTCCCAGCTGATGAATTACGGTTGTCGAGTAAACAAATTTTCCTAATCTTTCTGTTCAAGCGCCATCTAC | 1.24 RPM ratio (pull-down/input) |
| GATGATTGTTCTCCCAGCTGATGAATTATAAACGTCGAGTAAACAAATTTTCCTAATCTTTCTGTTCAAGCGCCATCTAC | 1.18 RPM ratio (pull-down/input) |
| GATGATTGTTCTCCCAGCTGATGAATTGCGAAGTTCGAGTAAACAAATTTTCCTAATCTTTCTGTTCAAGCGCCATCTAC | 1.06 RPM ratio (pull-down/input) |
| GATGATTGTTCTCCCAGCTGATGAATTGCAGCTTTCGAGTAAACAAATTTTCCTAATCTTTCTGTTCAAGCGCCATCTAC | 1.24 RPM ratio (pull-down/input) |
| GATGATTGTTCTCCCAGCTGATGAATTGGACAGTTCGAGTAAACAAATTTTCCTAATCTTTCTGTTCAAGCGCCATCTAC | 0.817 RPM ratio (pull-down/input) |
| GATGATTGTTCTCCCAGCTGATGAATTAAAGTCCTCGAGTAAACAAATTTTCCTAATCTTTCTGTTCAAGCGCCATCTAC | 0.752 RPM ratio (pull-down/input) |
| GATGATTGTTCTCCCAGCTGATGAATTTGTCTAATCGAGTAAACAAATTTTCCTAATCTTTCTGTTCAAGCGCCATCTAC | 1.28 RPM ratio (pull-down/input) |
| GATGATTGTTCTCCCAGCTGATGAATTCCTTGTTTCGAGTAAACAAATTTTCCTAATCTTTCTGTTCAAGCGCCATCTAC | 0.969 RPM ratio (pull-down/input) |
| GATGATTGTTCTCCCAGCTGATGAATTTGCGCCATCGAGTAAACAAATTTTCCTAATCTTTCTGTTCAAGCGCCATCTAC | 1.07 RPM ratio (pull-down/input) |
| GATGATTGTTCTCCCAGCTGATGAATTCGTGTGTTCGAGTAAACAAATTTTCCTAATCTTTCTGTTCAAGCGCCATCTAC | 1.22 RPM ratio (pull-down/input) |
| GATGATTGTTCTCCCAGCTGATGAATTGAACATCTCGAGTAAACAAATTTTCCTAATCTTTCTGTTCAAGCGCCATCTAC | 0.875 RPM ratio (pull-down/input) |
| GATGATTGTTCTCCCAGCTGATGAATTCGTAGTGTCGAGTAAACAAATTTTCCTAATCTTTCTGTTCAAGCGCCATCTAC | 0.887 RPM ratio (pull-down/input) |
| GATGATTGTTCTCCCAGCTGATGAATTCTGCTACTCGAGTAAACAAATTTTCCTAATCTTTCTGTTCAAGCGCCATCTAC | 0.879 RPM ratio (pull-down/input) |
| GATGATTGTTCTCCCAGCTGATGAATTGAGTCTATCGAGTAAACAAATTTTCCTAATCTTTCTGTTCAAGCGCCATCTAC | 0.848 RPM ratio (pull-down/input) |
| GATGATTGTTCTCCCAGCTGATGAATTTGCATCTTCGAGTAAACAAATTTTCCTAATCTTTCTGTTCAAGCGCCATCTAC | 1.89 RPM ratio (pull-down/input) |
| GATGATTGTTCTCCCAGCTGATGAATTGACTCCTTCGAGTAAACAAATTTTCCTAATCTTTCTGTTCAAGCGCCATCTAC | 0.989 RPM ratio (pull-down/input) |
| GATGATTGTTCTCCCAGCTGATGAATTTTAAAGGTCGAGTAAACAAATTTTCCTAATCTTTCTGTTCAAGCGCCATCTAC | 0.723 RPM ratio (pull-down/input) |
| GATGATTGTTCTCCCAGCTGATGAATTTATTTCGTCGAGTAAACAAATTTTCCTAATCTTTCTGTTCAAGCGCCATCTAC | 1.27 RPM ratio (pull-down/input) |
| GATGATTGTTCTCCCAGCTGATGAATTTTAATTGTCGAGTAAACAAATTTTCCTAATCTTTCTGTTCAAGCGCCATCTAC | 1.47 RPM ratio (pull-down/input) |
| GATGATTGTTCTCCCAGCTGATGAATTTGGAATGTCGAGTAAACAAATTTTCCTAATCTTTCTGTTCAAGCGCCATCTAC | 0.903 RPM ratio (pull-down/input) |

| Sequence | binding signal |
| --- | --- |
| GATGATTGTTCTCCCAGCTGATGAATTGAGCCCATCGAGTAAACAAATTTTCCTAATCTTTCTGTTCAAGCGCCATCTAC | 0.889 RPM ratio (pull-down/input) |
| GATGATTGTTCTCCCAGCTGATGAATTAAGATACTCGAGTAAACAAATTTTCCTAATCTTTCTGTTCAAGCGCCATCTAC | 1 RPM ratio (pull-down/input) |
| GATGATTGTTCTCCCAGCTGATGAATTTGACAATTCGAGTAAACAAATTTTCCTAATCTTTCTGTTCAAGCGCCATCTAC | 1.02 RPM ratio (pull-down/input) |
| GATGATTGTTCTCCCAGCTGATGAATTCATTTGTTCGAGTAAACAAATTTTCCTAATCTTTCTGTTCAAGCGCCATCTAC | 0.984 RPM ratio (pull-down/input) |
| GATGATTGTTCTCCCAGCTGATGAATTTTCACGCTCGAGTAAACAAATTTTCCTAATCTTTCTGTTCAAGCGCCATCTAC | 0.952 RPM ratio (pull-down/input) |
| GATGATTGTTCTCCCAGCTGATGAATTGACCTACTCGAGTAAACAAATTTTCCTAATCTTTCTGTTCAAGCGCCATCTAC | 0.881 RPM ratio (pull-down/input) |
| GATGATTGTTCTCCCAGCTGATGAATTCCCAGGATCGAGTAAACAAATTTTCCTAATCTTTCTGTTCAAGCGCCATCTAC | 0.749 RPM ratio (pull-down/input) |
| GATGATTGTTCTCCCAGCTGATGAATTCTAACAATCGAGTAAACAAATTTTCCTAATCTTTCTGTTCAAGCGCCATCTAC | 1.52 RPM ratio (pull-down/input) |
| GATGATTGTTCTCCCAGCTGATGAATTGCCTAAATCGAGTAAACAAATTTTCCTAATCTTTCTGTTCAAGCGCCATCTAC | 1.21 RPM ratio (pull-down/input) |
| GATGATTGTTCTCCCAGCTGATGAATTGTCAATCTCGAGTAAACAAATTTTCCTAATCTTTCTGTTCAAGCGCCATCTAC | 1.08 RPM ratio (pull-down/input) |
| GATGATTGTTCTCCCAGCTGATGAATTATCCCTTTCGAGTAAACAAATTTTCCTAATCTTTCTGTTCAAGCGCCATCTAC | 0.962 RPM ratio (pull-down/input) |
| GATGATTGTTCTCCCAGCTGATGAATTCATTACGTCGAGTAAACAAATTTTCCTAATCTTTCTGTTCAAGCGCCATCTAC | 1.01 RPM ratio (pull-down/input) |
| GATGATTGTTCTCCCAGCTGATGAATTATTGTTATCGAGTAAACAAATTTTCCTAATCTTTCTGTTCAAGCGCCATCTAC | 2.83 RPM ratio (pull-down/input) |
| GATGATTGTTCTCCCAGCTGATGAATTTGCACCGTCGAGTAAACAAATTTTCCTAATCTTTCTGTTCAAGCGCCATCTAC | 0.971 RPM ratio (pull-down/input) |
| GATGATTGTTCTCCCAGCTGATGAATTCAGGTATTCGAGTAAACAAATTTTCCTAATCTTTCTGTTCAAGCGCCATCTAC | 1 RPM ratio (pull-down/input) |
| GATGATTGTTCTCCCAGCTGATGAATTCTGAGGCTCGAGTAAACAAATTTTCCTAATCTTTCTGTTCAAGCGCCATCTAC | 0.859 RPM ratio (pull-down/input) |
| GATGATTGTTCTCCCAGCTGATGAATTGATCCCCTCGAGTAAACAAATTTTCCTAATCTTTCTGTTCAAGCGCCATCTAC | 0.821 RPM ratio (pull-down/input) |
| GATGATTGTTCTCCCAGCTGATGAATTCCGCTGATCGAGTAAACAAATTTTCCTAATCTTTCTGTTCAAGCGCCATCTAC | 0.889 RPM ratio (pull-down/input) |
| GATGATTGTTCTCCCAGCTGATGAATTCAGGATTTCGAGTAAACAAATTTTCCTAATCTTTCTGTTCAAGCGCCATCTAC | 0.809 RPM ratio (pull-down/input) |
| GATGATTGTTCTCCCAGCTGATGAATTTTGGTCGTCGAGTAAACAAATTTTCCTAATCTTTCTGTTCAAGCGCCATCTAC | 0.905 RPM ratio (pull-down/input) |
| GATGATTGTTCTCCCAGCTGATGAATTTGTCACGTCGAGTAAACAAATTTTCCTAATCTTTCTGTTCAAGCGCCATCTAC | 1.13 RPM ratio (pull-down/input) |
